The values that follow come from patent publication US12729231B2, “Fusion protein having triple activity and use thereof” (SHANGHAI MINWEI BIOTECHNOLOGY CO., LTD, priority 2023, dated 2026).

The subject of assay [1] is DIO mice. Nature of the assay: body weight reduction by multiple subcutaneous injections in DIO mice. Format: in vivo. On the procedure:
7-week-old C57BL/6Nju mice were fed with a high-fat diet (of about 20% protein and about 60% fat) for 12 weeks for modeling. Feeding conditions: 12 hours of light and 12 hours of darkness cycle every day, ad libitum feeding, temperature 20-25° C., relative humidity 40-70%, ventilation frequency of 10-15 times/hour. According to body weight, water consumption, and food intake, the mice were randomly divided into groups the day before administration. […] Subcutaneous injection treatment was administered twice a week for 5 consecutive weeks, for a total of 10 administrations. After the administration, the body weight, OGTT, body fat ratio, blood lipids and liver function of the mice were measured. The data are shown as mean±standard deviation, and statistically analyzed by One-Way ANOVA.

Assay [2] deals with T1, human GLP-1 receptor (Homo sapiens, UniProt P43220).
T1 construct: expressed in transfected cells; host or cells: CHO-K1
T1 sequence (P43220 24-463): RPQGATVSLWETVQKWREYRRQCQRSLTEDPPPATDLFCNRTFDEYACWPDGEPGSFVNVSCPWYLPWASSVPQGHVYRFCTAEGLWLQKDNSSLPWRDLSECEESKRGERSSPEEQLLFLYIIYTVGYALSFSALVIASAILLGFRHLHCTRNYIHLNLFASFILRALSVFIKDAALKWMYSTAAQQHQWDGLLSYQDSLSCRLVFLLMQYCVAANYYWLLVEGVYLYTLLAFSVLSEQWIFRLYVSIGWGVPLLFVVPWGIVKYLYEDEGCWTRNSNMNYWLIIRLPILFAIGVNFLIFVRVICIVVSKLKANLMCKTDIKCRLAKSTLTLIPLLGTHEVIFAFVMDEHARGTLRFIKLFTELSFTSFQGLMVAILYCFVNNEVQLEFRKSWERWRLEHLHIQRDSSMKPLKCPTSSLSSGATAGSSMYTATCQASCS
Nature of the assay: in vitro GLP-1 activity, CRE-luciferase reporter in CHO-K1 cells. Format: cell-based. The following applies: CHO-K1 cells expressing human GLP-1 receptor and CRE-luciferase, 5 hours incubation. On the procedure: (§1) CHO-K1 cells expressing human GLP-1 receptor and CRE-luciferase were used to detect the in vitro GLP-1 activity of the fusion proteins. The cells were inoculated in a 96-well plate at a density of 30,000 cells/well/100 μL, and cultured at 5% CO2, 37° C. for 1 hour. For each protein sample to be tested, the protein solution was diluted 9 times with a 4-fold gradient with PBS containing 2% HAS starting from a certain concentration, so that 10 dilutions of each sample with different concentrations were obtained. 50 μL of each dilution was taken out and added into the 96-well plate inoculated with cells, and the 96-well plate was incubated at 5% CO2, 37° C. for 5 hours. The 96-well plate was taken out from the incubator and placed at room temperature for 10 minutes of equilibration, and 100 μL of reaction solution was added into each well. After the 96-well plate was shaken at 200 rpm for 10 minutes, the fluorescence reading of each well was detected by a multi-function microplate reader. Using the sample concentration as the abscissa and the fluorescence reading as the ordinate, a curve was drawn and the median effective concentration (EC50) of each sample was calculated.

In assay [3] the target is T2, human GIP receptor (Homo sapiens, UniProt P48546).
T2 construct: expressed in transfected cells; host or cells: CHO-K1
T2 sequence (P48546 22-466): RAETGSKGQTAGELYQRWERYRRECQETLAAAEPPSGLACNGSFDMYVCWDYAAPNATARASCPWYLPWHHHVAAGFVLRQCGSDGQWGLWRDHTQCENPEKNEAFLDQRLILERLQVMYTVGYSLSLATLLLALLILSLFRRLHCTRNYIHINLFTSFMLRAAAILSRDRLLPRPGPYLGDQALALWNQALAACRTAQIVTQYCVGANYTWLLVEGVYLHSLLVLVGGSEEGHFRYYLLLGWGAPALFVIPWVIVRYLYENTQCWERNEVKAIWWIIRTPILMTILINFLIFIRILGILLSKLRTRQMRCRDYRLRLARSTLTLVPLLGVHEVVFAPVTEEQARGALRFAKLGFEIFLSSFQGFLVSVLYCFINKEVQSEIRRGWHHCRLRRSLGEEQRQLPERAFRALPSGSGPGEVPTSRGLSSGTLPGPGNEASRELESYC
Put plainly: in vitro GIP activity, CRE-luciferase reporter in CHO-K1 cells. Format: cell-based. The following applies: CHO-K1 cells expressing human GIP receptor and CRE-luciferase, 5 hours incubation. On the procedure: as §1, with “GIP” for “GLP-1”

In assay [4] the test system is db/db mice. Put plainly: blood glucose reduction by multiple subcutaneous injections in db/db diabetes mice. Format: in vivo. To be noted: 30 nmol/kg subcutaneous twice a week. The method, then: After adaptive feeding of animals, fasting blood glucose following a 4-hour fasting period was measured once a week. Except for the 6 mice in control group (Wild type), db/db mice were divided into groups for experiments after their 4-hour fasting blood glucose levels reached the high blood glucose standard (>16.7 mmol/L). Twenty-four male db/db mice that reached the high blood glucose standard were divided into 4 groups based on their blood glucose levels and body weight, with 6 mice in each group. […] After the experimental animals were grouped, corresponding drug treatment was administered subcutaneously (twice a week) at a dose of 30 nmol/kg. During the administration period, random blood glucose and fasting blood glucose (fasting for 4 hours) were measured twice a week.

The mark [5] stands for this setting: DIO mice, 30 nmol/kg subcutaneous twice a week for 5 weeks, mean of 6 mice.
[6] abbreviates: DIO obese mice, 30 nmol/kg subcutaneous twice a week for 5 weeks, mean of 6 mice.

Where a chain is given by its changes, count along the chain named.

B1: 12C12-F: GLP-1/GIP mutant 12C12 (SEQ ID NO 19)-linker-IgG4 Fc-linker-FGF21 mutant fusion protein, SEQ ID NO 7 (protein)
chain: HSEGTFTSDYSILLDKIAQKAFIEWLIAGGPSSGAPPPSGGGGSGGGGSGGGGSA[human IgG4 Fc with S228P F234A L235A (EU numbers) not listed]GGGGSGGGGSGGGGSHPIPDSSPLLQFGGQVRQVYLYTDDAQQTEAHLEIREDGTVGGAADQSPESLLQLKALKPGVIQILGVKTSRFLCQRPDGALYGSLHFDPEACSFRERLLEDGYNVYQSEAHGLPLHLPGNKSPHRDPAPRGPARFLPLPGLPPALPEPPGILAPQPPDVGSSDPLSMVGNSTGRSPSYAS
modifications: 12C12-F fusion protein
For B1, in assay [1] (setting [5]), the ALT was 14.683 U/L, the AST is given as 55.183 U/L, the “Blood glucose (fasting)” value is listed as 5.2 mmol/L and the “LDL-C (plasma low-density lipoprotein cholesterol)” value is 0.383 mmol/L. Besides, the “TC (plasma total cholesterol)” value in assay [1] (setting [5]) is listed as 3.348 mmol/L. Further, the “effect on blood glucose, plasma lipids and liver function” value in assay [1] (DIO obese mice) is “significantly reduce blood glucose, plasma total cholesterol and low-density lipoprotein cholesterol, improve liver function, and basically return them to normal”. Besides, in assay [1] (setting [6]), the “% Change in weight since inception” value is −39.73% and the Body fat ratio is recorded as 16.16%. For the same molecule, in assay [1] (DIO obese mice, compared with Tirzepatide and Fc-FGF21), the “effect on body weight and body fat ratio” value was “significantly reduce the body weight and body fat ratio of DIO obese mice, and the reduction extent is significantly greater than that of the control Tirzepatide and Fc-FGF21”. In assay [2], this molecule had an EC50 of 0.642 nM. In assay [3], the EC50 worked out at 0.006 nM. For the same molecule, the “blood glucose level compared with normal control group” value in assay [4] is “basically identical to that of the normal control group”. The “hypoglycemic effect compared with Tirzepatide and Fc-FGF21” value in assay [4] (random and fasting blood glucose (FIG. 1, FIG. 2)) was “significantly better than that of Tirzepatide (GLP-1/GIP dual activity) and Fc-FGF21 (FGF21 single activity)”.

B2: 12C11-F: GLP-1/GIP mutant 12C11 (SEQ ID NO 18)-linker-IgG4 Fc-linker-FGF21 mutant fusion protein, SEQ ID NO 6 (protein)
chain: B1 chain with S2G, L13Y, Q19A, A21D
modifications: 12C11-F fusion protein
For the molecule B2, the EC50 in assay [2] was determined as 0.255 nM; in assay [3], 0.036 nM.

B3: 12C4-F: fusion protein with R1 = 12C4 (SEQ ID NO 11), linker, Fc, linker, FGF21 element (protein)
chain: B1 chain with Q19A, A21D
On to B3, for which the EC50 stood at 2.56 nM in assay [2] and 0.056 nM in assay [3].

B4: 12C3-F: GLP-1/GIP mutant 12C3 (SEQ ID NO 10)-linker-IgG4 Fc-linker-FGF21 mutant fusion protein, SEQ ID NO 5 (protein)
chain: B1 chain with H1Y, S2G, L13Y
modifications: 12C3-F fusion protein
Take B4: the figures for the EC50 in assay [2] and in assay [3] were 0.515 nM and 0.055 nM, respectively.

B5: 12C5-F: fusion protein with R1 = 12C5 (SEQ ID NO 12), linker, Fc, linker, FGF21 element (protein)
chain: B1 chain with H1Y, S2G, Q19A, A21D, I23V, E24Q
As to B5, the EC50 turned out to be 6.32 nM in assay [2] and 0.032 nM in assay [3].

B6: 12C9-F: fusion protein with R1 = 12C9 (SEQ ID NO 16), linker, Fc, linker, FGF21 element (protein)
chain: B1 chain with Q19A, A21D, I23V, E24Q
For B6, the EC50 in assay [2] worked out at 10.7 nM; in assay [3], 0.093 nM.

B7: 12C1-F: GLP-1/GIP mutant 12C1 (SEQ ID NO 8)-linker-IgG4 Fc-linker-FGF21 mutant fusion protein, SEQ ID NO 4 (protein)
chain: B1 chain with H1Y, S2G
modifications: 12C1-F fusion protein
As for B7, the EC50 amounted to 0.83 nM in assay [2] and 0.064 nM in assay [3].

B8: 12C8-F: fusion protein with R1 = 12C8 (SEQ ID NO 15), linker, Fc, linker, FGF21 element (protein)
chain: B1 chain with H1Y, S2G, L13Y, Q19A, I23V, E24Q
As to B8, the EC50 in assay [2] amounted to 2.23 nM; in assay [3] it was 0.022 nM.

B9: 12C6-F: fusion protein with R1 = 12C6 (SEQ ID NO 13), linker, Fc, linker, FGF21 element (protein)
chain: B1 chain with S2G, A21D, I23V, E24Q
As to B9, the EC50 in assay [2] came out at 7.12 nM; in assay [3], 0.009 nM.

B10: 12C7-F: fusion protein with R1 = 12C7 (SEQ ID NO 14), linker, Fc, linker, FGF21 element (protein)
chain: B1 chain with L13Y, Q19A, A21D
On to B10, for which the 50% effective concentration (EC50) turned out to be 0.988 nM in assay [2] and 0.093 nM in assay [3].

B11: 12C2-F: fusion protein with R1 = 12C2 (SEQ ID NO 9), linker, Fc, linker, FGF21 element (protein)
chain: B1 chain with L13Y
As to B11, the EC50 came to 2.66 nM in assay [2] and 0.073 nM in assay [3].

B12: 12C10-F: fusion protein with R1 = 12C10 (SEQ ID NO 17), linker, Fc, linker, FGF21 element (protein)
chain: B1 chain with H1Y, L13Y, Q19A, I23V, E24Q
Consider B12, for which the results for the EC50 in assay [2] and in assay [3] were 7.36 nM and 0.111 nM, respectively.
